# Results from ChEMBL document CHEMBL4888484, “Replenishing the malaria drug discovery pipeline: Screening and hit evaluation of the MMV Hit Generation Library 1 (HGL1) against asexual blood stage Plasmodium falciparum ,using a nano luciferase reporter read-out” (2022).
# The campaign covered roughly 150,000 compounds. About 540 (0.36%) showed an effect of 50% or more. The list shows a part of the results.
# Tested on: Plasmodium falciparum
# Experiment: Primary screen in NF54 nanoGlo assay, in single point, at 2uM, 72h; a lower Z score goes with more inhibition
# Type: functional, Erythrocyte
# Details: timepoint 72 hour
Structure (SMILES),% Inhibition [%],Z score
CN1CCN(c2ccc(CNC(=O)[C@H]3CCc4sc(C(=O)N(C)C)cc4C3)cc2)CC1,-6,1.22
CCN(C(=O)c1cccc2cc[nH]c12)[C@H]1CCN(Cc2ccccc2)C1,-7,1.3
COc1ccc(CN(Cc2ccco2)C(=O)c2ccccc2F)cc1OCc1nc(CO)cs1,-5,0.84
CC(C)(C)CN1CCCC(N2CCC(n3ccnn3)C2)C1=O (configuration not stated),1,-0.17
C=CCCS(=O)(=O)Nc1ccc(-n2cncn2)nc1,-1,0.14
COc1cccc(CN2CCC(n3ccnc3)CC2)c1OC(C)C,-8,0.99
COc1ccc(F)cc1C(=O)N1CC(C)[S+]([O-])C(C)C1 (configuration not stated),-8,1.28
NC(=O)c1cc(Cl)cc(S(=O)(=O)NC[C@H]2CC[C@@H](CO)O2)c1,7,-0.99
CCOc1cccc2[nH]cc(CCNC(=O)[C@@H]3CCCO3)c12,-8,0.81
O=C(c1ccccn1)N1CC[C@H](Nc2ncccc2C(F)(F)F)[C@@H](O)C1,-11,1.66
CCn1ncc(N2CCC[C@H](CC(=O)Nc3cccc(OC)c3)C2)cc1=O,-8,1.02
Cc1nn(C)c(C)c1S(=O)(=O)N1CCC(OCCOc2cccnc2)CC1,-5,0.76
Cc1ncc(NC(=O)c2scnc2C2CC2)c(C2CC2)n1,-2,0.3
Cc1ccc(-n2nc(CC(C)C)nc2-c2cnc[nH]c2=O)cc1C,-11,1.22
N#C/C(=C(/O)c1ccc(F)cc1)c1nc2ccccc2s1,-31,3.61
CN(C1CCCCCC1)S(=O)(=O)c1cccs1,-17,1.45
CC(O)C(NC(=O)C1CCCC1)C(=O)N[C@H](C(N)=O)C(C)(C)C (some centres not stated),-9,1.19
COc1cc2cc(CN[C@H]3CCOC(C)(C)C3)c(=O)n(Cc3ccc(C)cc3)c2cc1OC,-1,0.15
C[C@H]1OCCN(Cc2ccc(C#N)cc2Br)[C@@H]1C(N)=O,-12,1.55
CCOC(=O)C1CCN(C(=O)c2ccccc2N(C)S(=O)(=O)c2ccccc2)CC1,0,-0.06
CC(C)(C)OC(=O)NC1CCN(c2ncc(S(=O)(=O)c3ccccc3)c(N)n2)CC1,-2,0.34

Structure (SMILES),% Inhibition [%],Z score
CCn1nc(C)c(-c2cc(C(=O)N3C[C@H]4CC[C@@H](O)[C@H]4C3)no2)c1C,-15,1.5
O=C(Nc1cc(S(=O)(=O)N2CCCC2)ccc1O)c1ccc2[nH]cnc2c1,-6,0.84
CN(C)c1cccc(C(=O)N2C[C@H](N(C)C)C[C@H]2CO)c1,-26,2.3
CCOc1ccc(NC(=O)C2CCN(c3cc(-c4ccc(C)cc4)ncn3)CC2)cc1,-9,0.99
CCN1CCN(Cc2ncnn2-c2ccc(C)cc2)CC1,-5,1.11
O=C(NCc1ccc(F)cc1)c1nc(Cc2ccccc2)n(-c2ccccc2)n1,-18,2.2
CCCc1nc(-c2cc3cc(C)ccc3nc2NCc2cc(OC)ccc2OC)no1,5,-0.6
CCn1ncc(C)c1NC(=O)CN(C)CCOC,-14,1.29
Cc1cccc(NC(=O)CC(C)(C)CC(=O)O)c1C,37,-1.21
Cc1cc(F)cc(N2C(=O)N[C@@H](C3CCOCC3)C2=O)c1,-5,0.62
O=C(CN1C(=O)c2ccccc2C1=O)N1CC(=O)N2CCc3ccccc3[C@@H]2C1,65,-8.85
O=C(c1cccn1C1CC1)N1CCC(F)(F)CC1,-4,0.7
Cc1ccc(-n2c(C)c(CNCc3ccc(C)o3)c(C(=O)O)c2C)cc1,-12,1.55
O=C(CN1C(=O)COc2ccccc21)N1CCN(c2ccccc2F)CC1,-5,0.61
CCn1c(C)c(-c2nc(C3CC3)no2)c(S(=O)(=O)NCc2ccco2)c1C,-11,2.19
CN(CC(=O)N[C@H]1CN(c2ncccn2)C[C@@H]1C1CC1)C1CCCC1,2,-0.32
Cc1cc(OC(=O)c2ccc(Cl)cc2)c(C)cc1CN1CCOCC1,-18,2.36
O=S(=O)(c1ccccc1Cl)N1CCC[C@H](c2nc(O)c3nnn(Cc4ccc(OC(F)(F)F)cc4)c3n2)C1,-1,0.08
Cc1nn(C)c(C)c1-c1cc(C(=O)NCc2c(F)cccc2Cl)n(C)n1,-17,1.68
COCc1nc(-c2ccc(N3CCOCC3)cc2)n(CC(F)(F)F)n1,1,-0.1
Cc1ccccc1C(=O)N1CCC[C@H]1c1nc2cc(-c3ccccc3C(F)(F)F)ccc2o1,-20,1.99

Structure (SMILES),% Inhibition [%],Z score
Cc1ccc([C@H]2c3cc(OCc4nc(C(=O)NCC5CC5)cs4)ccc3CCN2C(=O)C2CCCC2)cc1,-6,0.96
C[C@H](NCC(C)(C)C(N)=O)c1cc(F)ccc1F,1,-0.1
COc1ccc(CNC(=O)Cn2cnc3c(c2=O)CN(Cc2ccc(C)cc2)CC3)cc1,-13,1.62
CC1(C)C(=O)NCCN1C(=O)CCOCC(F)(F)C(F)F,-12,1.04
Cc1cc(C)n(-c2ccc(CCC(=O)N3CCC(F)(F)CC3)cc2)n1,-12,2.19
CCOC(=O)N1CCN(C(=O)CCc2n[nH]c(-c3ccc(OCc4cccc(F)c4)c(OC)c3)nc2=O)CC1,23,-3.23
Cn1nnc2c1CCC(NC(=O)[C@H]1C[C@@H]1c1ccc(Cl)cc1)C2 (some centres not stated),-5,0.58
Cc1nnc(Cn2cnc3c2CCCC3)o1,7,-0.99
O=C(C1CCN(S(=O)(=O)N2CCOCC2)CC1)N1CCC(Cc2nc(C3CCOCC3)no2)CC1,-16,2.11
C[C@H](C(=O)N1CCN(c2ccccc2)CC1)C1CCN(S(=O)(=O)c2ccc(Cl)s2)CC1,5,-0.64
CCCn1c(C(=O)NCCN2CCOCC2)cc2cc(NC(=O)CC(C)(C)C)ccc21,-3,0.4
CCn1cc(S(=O)(=O)Nc2cccn3nc(C4CC4)nc23)cn1,-13,1.42
CC(C(=O)N1CCCc2cc(C#N)ccc21)C1OCCc2sccc21 (configuration not stated),-2,0.21
COC(=O)C1(NC(=O)c2cnc(C)s2)CCCCC1,-11,1.99
CC[C@@H](C(=O)N1CC(c2nc(-c3cccc(C(=O)NC)c3)no2)C1)c1ccccc1,-1,0.11
CCOC(=O)CNC(=O)N1CCN(Cc2nc3cc(C)ccc3o2)CC1,-4,0.68
CCCCN(C)C(=O)c1cn(CCc2ccccn2)cc(C(=O)NC2CCCCCCC2)c1=O,-15,1.89
CC(C)N(C(=O)Cc1cc(-c2ccccc2)on1)c1cccnc1,6,-0.85
CCN(CCO)C(=O)NC1CCCCCCC1,-1,0.11
COc1cccc(F)c1C(=O)N1CCC2(CC1)[C@H](O)C[C@@H]2OC,-5,0.99
Cc1ccccc1[C@H]1C[C@@H](O)[C@@H](O)[C@@H]1NS(C)(=O)=O,-8,1.34

Structure (SMILES),% Inhibition [%],Z score
CS(=O)(=O)Nc1ccc(F)c(NC(=O)N[C@H]2CCCC[C@@H]2O)c1,-7,1.02
CCC(CC)NC(=O)COc1cccc(C)c1,-3,0.33
Cc1[nH]ncc1S(=O)(=O)NC[C@H](C)Oc1ccccc1,-3,0.33
CCOCCc1nc(-c2cccc(N3CCNC3=O)c2)n(C)n1,7,-0.6
Cc1cc(C)c(N2C(=O)c3ccc(C(=O)NCc4cccnc4)cc3C2=O)c(C)c1,-6,1.23
Cc1ccc(C(F)(F)F)cc1C(=O)N1CCC2(CCNC(=O)CC2)CC1,6,-0.56
O=C(N[C@H]1CCN(Cc2ccc3cccc(F)c3n2)C[C@@H]1O)c1ccncc1,-4,0.69
CCn1nc(C)c(CN(C)S(=O)(=O)c2ccc(N3CCCC3=O)cc2)c1C,32,-4.57
Cc1cccc(CN2CCN(c3ccc(-c4ccccc4)cc3)C(=O)[C@@H]2C)c1,-8,1.3
COCCN1C[C@]2(CCCN(c3cc(C)ccn3)C2)CCC1=O,-3,0.41
COc1ccc(N2CCN(C(=O)c3cc(C4CC4)[nH]n3)CC2)cc1,-8,0.73
Cc1cccn(CC(=O)NC2CCOCC2)c1=O,7,-0.94
O=S(=O)(NC[C@@H](c1cccs1)N1CCc2ccccc2C1)c1ccc(Cl)cc1,-16,2.07
COc1ncc(-c2nc(-c3ccsc3)no2)c(C)n1,-5,0.55
CCN1CCC([C@H]2c3nccn3CCCN2CCc2ccccc2)CC1,5,-0.72
CC1(C(=O)O)CCN(C(=O)N[C@H]2CCN(c3ccc(F)c(Cl)c3)C2)CC1,-6,0.63
CC(C)(C)CNC1(Cc2cc(-c3ccccn3)on2)COC1,12,-1.39
O=C(NCc1cccnc1N1CCOCC1)N1CCC(CO)CC1,-8,1.19
